Measured values as given in the supplement of paper PMC12217912.
Some of the results follow. Sequences were assembled here from the parent chain. Values near 0.05 are background.

B1: TEV protease; numbered along this chain (parent)
chain: MGESLFKGPRDYNPISSSICHLTNESDGHTTSLYGIGFGPFIITNKHLFRRNNGTLVVQSLHGVFKVKDTTTLQQHLVDGRDMIIIRMPKDFPPFPQKLKFREPQREERICLVTTNFQTKSMSSMVSDTSCTFPSGDGIFWKHWIQTKDGQCGSPLVSTRDGFIVGIHSASNFTNTNNYFTSVPKNFMELLTNQEAQQWVSGWRLNADSVLWGGHKVFMVKPEEPFQPVKEATQL

Variants of: B1
Test: raw area under fraction-flipped curve 0-4 h after induction (AUC4h, not background-subtracted), DNA-recorder readout of cleavage of the substrate (dimensionless); higher = more cleavage of the substrate by the protease variant
Settings: temperature: 34 °C; time window: 0-4 h after rhamnose induction
Experimental: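 In vivo DNA recorder in E. coli TOP10(DE3) ΔrhaA at 34 °C. Each TEVp single-site mutant (parent TEVp 0) is paired with a single-site variant of the 7-mer TEVs (canonical ENLYFQ|S). The substrate sits between flexible linkers in a Bxb1-sfGFP-TEVs-SsrA fusion, so cleavage stabilises Bxb1 and speeds flipping of a recombination array, read by NGS. The value is the raw area under the fraction-flipped curve over 0-4 h after rhamnose induction (AUC4h), with ≥20 reads per time point. It is not background-subtracted; inactive controls average about 0.047.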
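Further: Bxb1 expression induced with 0.2% (w/v) L-rhamnose at OD600 near 0.5, cultures sampled hourly, flipped fraction per protease–substrate barcode pair counted by paired-end Illumina sequencing.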

| Variant | area with substrate ENAYFQS | area with substrate ENCYFQS | area with substrate ENDYFQS | area with substrate ENEYFQS | area with substrate ENFYFQS | area with substrate ENGYFQS | area with substrate ENHYFQS | area with substrate ENKYFQS | area with substrate ENNYFQS | area with substrate ENPYFQS | area with substrate ENQYFQS | area with substrate ENRYFQS | area with substrate ENSYFQS | area with substrate ENVYFQS | area with substrate ENWYFQS | area with substrate ENMYFQS | area with substrate ENTYFQS | area with substrate ENYYFQS | area with substrate ENIYFQS |
| --- | --- | --- | --- | --- | --- | --- | --- | --- | --- | --- | --- | --- | --- | --- | --- | --- | --- | --- | --- |
| MGESLFKGPRDYNPISSSICHLTNESDGHTTSLYGIGFGPFIITNKHLFRRNNGTLVVQSLHGVWKVKDTTTLQQHLVDGRDMIIIRMPKDFPPFPQKLKFREPQREERICLVTTNFQTKSMSSMVSDTSCTFPSGDGIFWKHWIQTKDGQCGSPLVSTRDGFIVGIHSASNFTNTNNYFTSVPKNFMELLTNQEAQQWVSGWRLNADSVLWGGHKVFMVKPEEPFQPVKEATQL [F65W] | 0.076 | 0.0776 | 0.0629 | 0.0509 | 0.0784 | 0.0787 | 0.0566 | 0.066 | 0.0607 | 0.0622 | 0.0583 | 0.06 | 0.0581 | 0.0815 | 0.0723 | – | – | – | – |
| MGESLFKGPRDYNPISSSICHLTNESDGHTTSLYGIGFGPFIITNKHLFRRNNGTLVVQSLHGVFKVTDTTTLQQHLVDGRDMIIIRMPKDFPPFPQKLKFREPQREERICLVTTNFQTKSMSSMVSDTSCTFPSGDGIFWKHWIQTKDGQCGSPLVSTRDGFIVGIHSASNFTNTNNYFTSVPKNFMELLTNQEAQQWVSGWRLNADSVLWGGHKVFMVKPEEPFQPVKEATQL [K68T] | 0.0649 | – | 0.0623 | 0.0441 | – | 0.0627 | – | – | – | 0.0431 | 0.0568 | – | 0.067 | – | – | 0.0735 | 0.0675 | 0.0727 | – |
| MGESLFKGPRDYNPISSSICHLTNESDGHTTSLYGIGFGPFIITNKHLFRRNNGTLVVQSLHGVFKVKDTTDLQQHLVDGRDMIIIRMPKDFPPFPQKLKFREPQREERICLVTTNFQTKSMSSMVSDTSCTFPSGDGIFWKHWIQTKDGQCGSPLVSTRDGFIVGIHSASNFTNTNNYFTSVPKNFMELLTNQEAQQWVSGWRLNADSVLWGGHKVFMVKPEEPFQPVKEATQL [T72D] | 0.0464 | 0.0622 | 0.0623 | 0.0747 | 0.0617 | 0.0558 | – | 0.063 | 0.0613 | 0.0552 | 0.0735 | 0.0612 | 0.0584 | 0.0493 | – | – | 0.0664 | – | 0.106 |
| MGESLFKGPRDYNPISSSICHLTNESDGHTTSLYGIGFGPFIITNKHLFRRNNGTLVVQSLHGVFKTKDTTTLQQHLVDGRDMIIIRMPKDFPPFPQKLKFREPQREERICLVTTNFQTKSMSSMVSDTSCTFPSGDGIFWKHWIQTKDGQCGSPLVSTRDGFIVGIHSASNFTNTNNYFTSVPKNFMELLTNQEAQQWVSGWRLNADSVLWGGHKVFMVKPEEPFQPVKEATQL [V67T] | 0.0535 | 0.0703 | 0.0868 | 0.0587 | 0.0607 | 0.0614 | 0.0784 | – | 0.0638 | – | 0.0601 | 0.0648 | – | 0.0704 | – | – | 0.0614 | – | 0.0939 |
| MGESLFKGPRDYNPISSSICHLTNESDGHTTSLYGIGFGPFIITNKHLFRRNNGTLVVQSLHGVFKDKDTTTLQQHLVDGRDMIIIRMPKDFPPFPQKLKFREPQREERICLVTTNFQTKSMSSMVSDTSCTFPSGDGIFWKHWIQTKDGQCGSPLVSTRDGFIVGIHSASNFTNTNNYFTSVPKNFMELLTNQEAQQWVSGWRLNADSVLWGGHKVFMVKPEEPFQPVKEATQL [V67D] | 0.0342 | – | 0.0488 | 0.0357 | 0.0599 | 0.0513 | 0.054 | – | 0.0483 | 0.0699 | 0.043 | 0.0513 | 0.0523 | – | 0.0394 | 0.0606 | 0.0588 | 0.0508 | 0.0699 |
| MGESLFKGPRDYNPISSSICHLTNESDGHTTSLYGIGFGPFIITNKHLFRRNNGTLVVQSLHGVFKLKDTTTLQQHLVDGRDMIIIRMPKDFPPFPQKLKFREPQREERICLVTTNFQTKSMSSMVSDTSCTFPSGDGIFWKHWIQTKDGQCGSPLVSTRDGFIVGIHSASNFTNTNNYFTSVPKNFMELLTNQEAQQWVSGWRLNADSVLWGGHKVFMVKPEEPFQPVKEATQL [V67L] | 0.0632 | 0.0501 | 0.0817 | 0.0467 | – | 0.0996 | 0.0592 | 0.0696 | 0.0302 | 0.0504 | – | 0.066 | 0.0681 | – | – | 0.105 | – | – | – |
| MGESLFKGPRDYNPISSSICHLTNESDGHTTSLYGIGFGPFIITNKHLFRRNNGTLVVQSLHGVFPVKDTTTLQQHLVDGRDMIIIRMPKDFPPFPQKLKFREPQREERICLVTTNFQTKSMSSMVSDTSCTFPSGDGIFWKHWIQTKDGQCGSPLVSTRDGFIVGIHSASNFTNTNNYFTSVPKNFMELLTNQEAQQWVSGWRLNADSVLWGGHKVFMVKPEEPFQPVKEATQL [K66P] | 0.0604 | – | 0.0675 | 0.0673 | 0.0535 | 0.0528 | 0.0442 | 0.0517 | 0.0526 | – | – | – | 0.0374 | 0.0757 | 0.0513 | – | 0.0575 | – | 0.0926 |
| MGESLFKGPRDYNPISSSICHLTNESDGHTTSLYGIGFGPFIITNKHLFRRNNGTLVVQSLHGVFKVKDTTTLQCHLVDGRDMIIIRMPKDFPPFPQKLKFREPQREERICLVTTNFQTKSMSSMVSDTSCTFPSGDGIFWKHWIQTKDGQCGSPLVSTRDGFIVGIHSASNFTNTNNYFTSVPKNFMELLTNQEAQQWVSGWRLNADSVLWGGHKVFMVKPEEPFQPVKEATQL [Q75C] | 0.0556 | 0.0762 | 0.0497 | 0.0671 | 0.0415 | 0.0578 | 0.0646 | 0.0638 | 0.0731 | 0.0591 | 0.0543 | 0.0629 | 0.0612 | 0.0706 | – | 0.109 | 0.0598 | – | – |
| MGESLFKGPRDYNPISSSICHLTNESDGHTTSLYGIGFGPFIITNKHLFRRNNGTLVVQSLHYVFKVKDTTTLQQHLVDGRDMIIIRMPKDFPPFPQKLKFREPQREERICLVTTNFQTKSMSSMVSDTSCTFPSGDGIFWKHWIQTKDGQCGSPLVSTRDGFIVGIHSASNFTNTNNYFTSVPKNFMELLTNQEAQQWVSGWRLNADSVLWGGHKVFMVKPEEPFQPVKEATQL [G63Y] | 0.059 | – | 0.0576 | 0.0709 | 0.0544 | – | 0.049 | – | – | – | 0.0698 | – | – | 0.0647 | – | 0.063 | – | – | 0.0932 |
